The campaign covered roughly 340,000 compounds. About 6,900 (2%) were called active. Cut-off read from the data, not from the text of the source: active = inhibition above about 30%; inactive = below that, where a call was filed. The list shows a part of the results, in another mix than the full data. The source gives no active or inactive call for entries shown without one.

UniProt P14416, sequence (P14416 whole entry, looked up): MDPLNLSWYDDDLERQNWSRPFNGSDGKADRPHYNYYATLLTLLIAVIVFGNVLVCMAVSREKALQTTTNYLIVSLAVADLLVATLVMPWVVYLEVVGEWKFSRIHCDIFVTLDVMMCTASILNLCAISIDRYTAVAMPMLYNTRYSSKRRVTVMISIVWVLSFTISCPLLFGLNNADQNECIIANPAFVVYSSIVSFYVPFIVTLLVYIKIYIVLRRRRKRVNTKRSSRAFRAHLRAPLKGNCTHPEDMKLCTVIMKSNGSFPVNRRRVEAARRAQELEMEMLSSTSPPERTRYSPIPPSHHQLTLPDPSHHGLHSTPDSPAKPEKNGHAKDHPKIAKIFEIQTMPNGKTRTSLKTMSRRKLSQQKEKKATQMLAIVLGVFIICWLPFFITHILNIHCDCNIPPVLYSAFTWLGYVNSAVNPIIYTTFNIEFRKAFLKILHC

The assay deals with D(2) dopamine receptor (Homo sapiens) (UniProt P14416). The experiment in a line: HTS Assay for Allosteric Antagonists of the Human D2 Dopamine Receptor: Primary Screen for Antagonists. Note: 0% is about no effect. As to conditions: HEK293 TREx D2 cells, calcium flux, dopamine EC80; at 10 µM; stronger effect = higher value. In a few lines:
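Cells plated overnight at 30 C with tetracycline; no-wash calcium dye, 30–90 min RT; 10 s baseline; compound pinned; 180 s read; EC80 dopamine added; another 180 s read.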
The term inhibition denotes the relative decrease from the control value, in per cent. As to `CCCCN(CC)CCCNC(=O)Cn1nc(CC)n2c(cc3sccc32)c1=O`, the inhibition was 4.86%.

Take `CSc1ncc(C(=O)NCc2ccc(F)cc2)c(-c2ccccc2)n1`: the inhibition turned out to be 11.1%.

Consider `COc1ccc2c(c1)c1c(c(=O)n(CCc3ccccc3)c(=O)n1Cc1cccc(C)c1)n2C`, for which the inhibition is -6.59%.

On to `CCOC(=O)c1ccc(NC(=O)CCCn2nc(C)c3sc4ccccc4c3c2=O)cc1`, for which the inhibition is -14%.

With `Cc1cc(C)cc(NC(=O)c2cn3c4c(ccc(Cl)c4c2=O)OC(C)C3)c1` (configuration not stated), the inhibition came out at 9.49%.

In the case of `CCCCn1c(=O)c2oc3ccccc3c2n(Cc2ccc(OC)cc2)c1=O`, the inhibition was 18.5%.

On to `O=c1[nH]c(/C=C/c2ccccn2)nc2ccccc12`, for which the inhibition was active: 37.1%.

`CCOC(=O)C1=C(CS(=O)(=O)c2ccccc2)NC(=O)NC1c1ccccc1OCC` (configuration not stated): the inhibition is active: 36.1%.

On to `COc1ccccc1CNC(=O)c1ccc(-c2nc(CS(=O)c3ccc(C)cc3)c(C)o2)cc1` (configuration not stated), for which the inhibition was -7.82%.

Consider `COc1ccc(S(=O)(=O)Nc2ccc3c(c2)sc(=O)n3C)cc1Cl`, for which the inhibition worked out at 4.87%.

Regarding `COc1ccc(NC(=O)C2CCN(S(=O)(=O)c3cn(C)cn3)CC2)cc1Cl`, the inhibition turned out to be 1.82%.

For the compound `CC(C)C(=O)Nc1nnc(S(=O)(=O)N(C)Cc2ccc(F)cc2)s1`, the inhibition is -4.35%.

On to `CCOc1ccccc1NC(=O)C1CCCN(c2ncnc3onc(-c4ccc(F)cc4)c23)C1` (configuration not stated), for which the inhibition came out at 14.5%.

Take `CC(=O)OCc1cnc(C)c2oc(=O)c(C(=O)Nc3cc(F)ccc3C)cc12`: the inhibition was found to be 17.9%.

On to `O=C(c1ccc([N+](=O)[O-])cc1)N(Cc1ccco1)c1ccccn1`, for which the inhibition is -13.1%.

Consider `NC(=O)CN1C(=O)C2(SCC(=O)N2c2cccc(F)c2)c2ccccc21` (configuration not stated), for which the inhibition was -3.58%.

For the compound `COc1ccc(C2C(C(=O)Nc3ccc(C)cc3C)=C(C)Nc3nc(SC)nn32)cc1OC` (configuration not stated), the inhibition is -23.5%.

As to `Cc1ccc(NC(=O)CSc2nnc(COc3ccc(Cl)cc3)o2)cc1`, the inhibition was 16.4%.

For the compound `CCSc1nnc(NC(=O)c2csc3c2CCCC3)s1`, the inhibition is active: 40.2%.

Consider `CCc1ccc(CN(Cc2ccco2)C(=O)COc2ccccc2Cl)cc1`, for which the inhibition came out at 7.4%.

As to `Cc1ccc(-c2nnc(Nc3cccc(Br)c3)c3ccccc23)cc1S(=O)(=O)N1CCCCC1`, the inhibition turned out to be 5.3%.

Turning to `Cc1cccc(-n2c(=O)c3c(c4cc(C)ccc4n3C)n(C)c2=O)c1`, the inhibition worked out at 0.729%.

In the case of `Cc1ccc(C)c(C(=O)CSc2nc(-c3ccccc3)nc3c2CCCC3)c1`, the inhibition was -14.8%.

Take `Cc1cc2c(cc1S(=O)(=O)CCC(=O)N(C)C1CCCCC1)OCC(=O)N2`: the inhibition was -5.57%.

For `COCCN(Cc1ccco1)C(=O)Cn1ncc2c([nH]c3ccccc32)c1=O`, the inhibition was -2.97%.

Turning to `CN(c1ncnc2c1c(-c1ccccc1)cn2-c1cccc(Cl)c1)C1CCCCC1`, the inhibition is -23.4%.

`Cc1ccc(-c2nnn3c2nc(NCCc2ccccc2)c2ccccc23)cc1`: the inhibition was 6.05%.

On to `COc1cccc(NC(=O)CCc2nc(-c3ccc(C(C)(C)C)cc3)no2)c1`, for which the inhibition came out at 2.06%.

Take `COC(=O)c1cc2oc(C)cc2n1Cc1cc(C)ccc1C`: the inhibition is -4.62%.

Turning to `CCOc1ccc(NC(=O)CSc2nc(-c3cccc(Cl)c3)nc3c2Cc2c(CO)cnc(C)c2O3)cc1`, the inhibition is 14.2%.

`Cc1ccc(C)c(NC(=O)Cn2ncc3c([nH]c4ccccc43)c2=O)c1`: the inhibition came to 0.0342%.

As to `Cc1ccc(C)c(NC(=O)CSc2c(C)cnc3c2c(=O)n(C)c(=O)n3C)c1`, the inhibition was -11.3%.

Consider `CCOc1ccc(OCC)c(NS(=O)(=O)c2c(C)[nH]c(=O)[nH]c2=O)c1`, for which the inhibition came to 1.18%.

Take `O=C(Cn1cnc2nc3c(cc2c1=O)CCCC3)N1CCN(c2cccc(C(F)(F)F)c2)CC1`: the inhibition was found to be 23.4%.

`O=C(CCCCCN1C(=O)c2ccccc2C1=O)Nc1ccc(F)cc1`: the inhibition was active: 34.5%.

`CCC(=O)N1c2ccccc2CC1C(=O)N1CCN(c2cccc(OC)c2)CC1` (configuration not stated): the inhibition is -15.9%.

For the compound `CCc1ccc(NC(=O)Cn2ccn(-c3ccc(OC)cc3)c(=O)c2=O)cc1`, the inhibition is -22.4%.

`CC(=O)c1ccc(S(=O)(=O)Nc2ccc(-c3ccc(N4CCCCC4)nn3)cc2)cc1`: the inhibition is 8.37%.

On to `COc1ccc(Cn2c(C(=O)O)c(CNC3CCCC3)c3ccc(C)cc32)cc1`, for which the inhibition is 14%.

On to `COc1ccc(CCNC(=O)c2csc3c2CCCCC3)c(OC)c1`, for which the inhibition is -16.5%.

For `CCC1CCCCN1Cc1c(O)ccc2c(=O)c(Oc3ccccc3Cl)c(C(F)(F)F)oc12` (configuration not stated), the inhibition is -6.15%.

For `Cc1cccn2c3c(c(=O)nc12)C(c1cccc(F)c1)CC(=O)N3` (configuration not stated), the inhibition was -5.33%.

`Cc1oc2ncn(CC(C)C)c(=O)c2c1C(=O)NCCc1ccc(Cl)cc1`: the inhibition is -12.7%.

On to `Cc1ccc(CNC(=O)c2ccc3c(c2)CCN3S(=O)(=O)c2ccccc2)cc1`, for which the inhibition is 8.32%.

With `CCc1nc2ccc(C(=O)NCc3ccc(OC)c(OC)c3)cc2nc1CC`, the inhibition was -23.9%.

With `N#CCC(=O)Nc1ccc(C(=O)OCC(=O)NCc2ccc3c(c2)OCO3)cc1`, the inhibition was active: 44%.

For `CC1(C)Cc2c(c(N3CCOCC3)nc3sc(C(=O)Nc4ccc(Cl)cc4)c(N)c23)CO1`, the inhibition was 1.92%.

As to `Cc1ccc2c(CC(=O)Nc3cccc(C(F)(F)F)c3)coc2c1`, the inhibition stood at 12.5%.

Regarding `Cc1ccc2c(c1)-c1onc(C(=O)N(C)c3cccc(C(F)(F)F)c3)c1CO2`, the inhibition is 11.2%.

For `Cc1ccccc1CNC(=O)Cn1c(C)c2cnn(-c3ccccc3)c(=O)c2c1C`, the inhibition worked out at 0.149%.

Consider `CCOC(=O)COc1ccc(/C=C(\C#N)c2nc3ccc(C)cc3[nH]2)cc1OC`, for which the inhibition is 7.35%.

On to `CCOC(=O)c1sc(N2C(=O)c3oc4ccccc4c(=O)c3C2c2ccc(C(C)(C)C)cc2)nc1C` (configuration not stated), for which the inhibition worked out at 5.51%.

For the compound `CCCCOc1ccc(C(=O)Nc2cc(-c3ccc(C)cc3)no2)cc1`, the inhibition was determined as 16.4%.

Take `Cc1nn(-c2ccccc2)c2nc(C3CC3)cc(C(=O)Nc3ccc(F)cc3)c12`: the inhibition is 5.03%.

Turning to `O=C(Nc1ccc(OCc2cc(=O)n3c4c(sc3n2)CCCC4)cc1)c1cccc(F)c1`, the inhibition is -7.59%.

Regarding `CCc1c(C)sc2c1CCN(Cc1ccccc1)C2c1ccccc1` (configuration not stated), the inhibition was -2.36%.

As for `O=C(CCn1cnc2onc(-c3ccc(F)cc3)c2c1=O)Nc1ccc(F)c(Cl)c1`, the inhibition amounted to 3.07%.

For `Cc1ccc(NC(=O)CN(C)S(=O)(=O)c2ccc3c(c2)n(C)c(=O)c(=O)n3C)cc1F`, the inhibition worked out at 3.44%.

In the case of `COc1cc(C(=O)NCCc2ccc(S(=O)(=O)N3CCCC3)cc2)cc(OC)c1OC`, the inhibition is active: 58%.

Take `Cn1c(SCC(=O)NCc2ccc(F)cc2)ncc(C(=O)Nc2ccccc2)c1=O`: the inhibition is active: 32.1%.

As for `CCOC(=O)C1CCN(CC(=O)Nc2cc(C)c3c(=O)oc4ccccc4c3n2)CC1`, the inhibition is -4.86%.

With `Cc1ccccc1S(=O)Cc1ccc(C(=O)NC2CCN(Cc3ccccc3)CC2)o1` (configuration not stated), the inhibition was active: 43.9%.

(Values after PubChem BioAssay AID485344 (National Center for Advancing Translational Sciences (NCATS), 2010).)
